Measured values reported in PubChem BioAssay AID624417 (National Center for Advancing Translational Sciences (NCATS), 2012).
Hit rate of the full screen: of about 410,000 compounds, about 6,400 (1.6%) were called active. The shares of active, inactive and inconclusive entries below differ from those in the screen. Calls come from the whole dose curve; as a rule, active = well fitted inhibition curve with a large enough effect; inconclusive = small, poorly fitted or top-dose-only effect; inactive = no such curve, though single readings can be large or run the other way. Potencies of inconclusive entries are left out as doubtful fits.

Each compound was assayed against Glucagon-like peptide 1 receptor (Homo sapiens) (UniProt P43220) (assay: qHTS of GLP-1 Receptor Inverse Agonists (Inhibition Mode)). Conditions: HEK293 GLP-1R CRE-luciferase, luminescence, 24 h, GLP-1R form is constitutively active; activity change, negative = inhibition: at 38.3 µM (top of the series) unless noted.
Outline: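 Assay principle: reduced luminescence from a cAMP-responsive reporter in HEK293 cells co-expressing a constitutively active GLP-1R. Conditions: 24 hr compound incubation, 37 deg C, 5% CO2.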
% is set by controls: 0 for no effect and ±100 for the full control effect; potency is the fitted concentration of half-maximal effect; tags give direction and shape of the fitted curve.
Note: nearly all actives have a fitted effect of over 55% in size.

Chain of UniProt P43220 (P43220 whole entry, looked up): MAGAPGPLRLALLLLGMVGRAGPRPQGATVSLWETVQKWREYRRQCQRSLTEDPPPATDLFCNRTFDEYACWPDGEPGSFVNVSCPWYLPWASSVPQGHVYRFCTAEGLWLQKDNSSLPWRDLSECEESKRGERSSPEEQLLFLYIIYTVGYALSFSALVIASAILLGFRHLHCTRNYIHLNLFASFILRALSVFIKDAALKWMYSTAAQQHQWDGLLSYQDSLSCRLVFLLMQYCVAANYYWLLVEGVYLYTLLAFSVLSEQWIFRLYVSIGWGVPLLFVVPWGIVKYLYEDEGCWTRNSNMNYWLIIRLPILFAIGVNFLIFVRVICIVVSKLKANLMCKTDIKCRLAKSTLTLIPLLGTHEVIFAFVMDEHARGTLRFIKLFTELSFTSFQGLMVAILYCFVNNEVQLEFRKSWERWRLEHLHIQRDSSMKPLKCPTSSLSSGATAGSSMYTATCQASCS

Compound	Potency	activity change, negative = inhibition
CC12CCC(=O)N1C(C(=O)N1CCN(S(=O)(=O)c3ccc(Br)cc3Cl)CC1)CS2 (stereo not given)	inconclusive [inhibitor, partial curve, poor fit]	
NC(=O)c1c(NC(=O)c2c(F)cccc2F)sc2c1CCN(Cc1ccccc1)C2		inactive: 2.9%
Cc1ccc(C)c(CSc2nc3ccncc3n2CC(=O)Nc2ccc(N(C)C)cc2)c1	inconclusive [inhibitor, single point]	
CN(c1ccc(F)cc1)S(=O)(=O)c1ccc(Cl)c(C(=O)NCC(c2ccco2)N2CCCCC2)c1 (stereo not given)	inconclusive [inhibitor, partial curve, poor fit]	
O=C(CSCc1ccccc1Cl)NCCSc1ccccn1	inconclusive [inhibitor, single point]	
CCC(C)(C)n1nnnc1C(c1cccnc1)N1CCCc2ccccc21 (stereo not given)		inactive: 0%
CN(Cc1cn(C)nc1-c1ccccc1F)CC1CCN(Cc2ccccc2)CC1	inconclusive [inhibitor, partial curve, poor fit]	
COc1ccc2nc(NN=C(C)c3ccccn3)cc(C)c2c1	inconclusive [inhibitor, full curve, poor fit]	
CC(C)N1CCCC(C)(C(=O)Nc2nc3ccccc3n2C)C1 (stereo not given)		inactive: 1.65%
CCC(=O)N1N=C(c2ccc(C)o2)CC1c1ccc(Br)cc1 (stereo not given)	inconclusive [inhibitor, partial curve, poor fit]	
Cc1cccc(CC(=O)Nc2ccc(C(=O)N3CCCCC3)cc2)c1	inconclusive [inhibitor, full curve, poor fit]	
CSc1ccc(CN(C)CC(=O)Nc2ccccc2C(=O)NC2CC2)cc1	inconclusive [inhibitor, single point]	
CCOc1ccc(N(CC(=O)Nc2cccnc2)S(=O)(=O)c2ccc(C)cc2)cc1	inconclusive [inhibitor, single point]	
CCN(C(=O)CSc1nnc(-c2cccs2)n1N)c1c(N)n(Cc2ccccc2)c(=O)[nH]c1=O		inactive: 7.1%
CCCCOc1ccc(C(=O)NCC2(c3ccc(OC)cc3)CCOCC2)cc1	inconclusive [inhibitor, partial curve, poor fit]	
CCN(c1ccccc1)S(=O)(=O)c1ccc(Cl)c(NC(=O)CNCc2ccccc2OC)c1	inconclusive [inhibitor, partial curve, poor fit]	
CN(C)CCCN1c2ccccc2CCc2ccc(Cl)cc21	inconclusive [inhibitor, single point]	
CC1(C(=O)NS(=O)(=O)c2cccc(Cl)c2)CCN1C(=O)c1cccc(F)c1 (stereo not given)		inactive: 22%
Cc1cccc(Nc2nc(N)nc(CN3CCC(C(N)=O)CC3)n2)c1C		inactive: -2.62%
Cc1cccc(NC(=O)c2cc(Cl)ccc2[N+](=O)[O-])c1	inconclusive [inhibitor, single point]	

Compound	Potency	activity change, negative = inhibition
COC(=O)c1cccc(Nc2cc(C)nc(-c3ccccc3O)n2)c1	inconclusive [inhibitor, full curve, poor fit]	
c1ccc2cc3[nH]c(CN4CCCCC4)nc3cc2c1	inconclusive [inhibitor, single point]	
Cc1csc(NC(=O)CSc2nc(C(C)C)nc3c2c(=O)n(C)c(=O)n3C)n1	inconclusive [inhibitor, full curve, poor fit]	
CCOC(=O)c1cc(C)n(CC2CCC(C(=O)Nc3ccc(C)c(F)c3)CC2)c1C (stereo not given)		inactive: -2.25%
O=C(O)c1cc(Cl)c(Cl)cc1C(=O)N(Cc1ccccc1)Cc1ccccc1	inconclusive [inhibitor, single point]	
CCOC(=O)[C@]12CCCC=C1N(CCC1=CCCCC1)C(=O)[C@H](CC(=O)N1CCC(c3ccccc3)CC1)C2	inconclusive [inhibitor, single point]	
CC(=O)O[C@H]1[C@@H](O)[C@H](O)[C@H](Oc2c(O)c(C)c3c4c2[C@@H](C)CC[C@@H]4[C@@H](C)C[C@H]3C=C(C)C)O[C@H]1C	active: 11.2 µM	
COc1ccc(-n2c(C)cc(C(=O)CSc3nnc(-c4ccoc4C)n3C)c2C)cc1	inconclusive [inhibitor, single point]	
Cc1cc(F)ccc1-c1cc(C(=O)N2CCN(c3ccncc3)CC2)[nH]n1	inconclusive [inhibitor, full curve, poor fit]	
CCn1c(SCC(=O)Nc2oc(-c3ccccc3)c(-c3ccccc3)c2C#N)nnc1-c1ccco1	inconclusive [inhibitor, single point]	
CN(C)CCCNc1nc(N)c([N+](=O)[O-])c(NCc2ccccc2)n1	inconclusive [inhibitor, partial curve, poor fit]	
CN(C)CCCN(C(=O)c1cc(Cl)sc1Cl)c1nc2cc3c(cc2s1)OCO3	inconclusive [inhibitor, partial curve, poor fit]	
C/C(=N\NC(=S)Nc1c(C)cccc1C)c1cc2ccccc2o1	inconclusive [inhibitor, partial curve, poor fit]	
O=C(CCN1CCN(c2ccccc2)CC1)Nc1cccc(Br)c1	active: 11.2 µM	
Cc1ccc(SCc2c(-c3ccccc3)nn(C)c2Cl)cc1	inconclusive [inhibitor, single point]	
Cc1c(NC(=O)c2nc3ccccc3nc2N2CCCCC2)cccc1[N+](=O)[O-]		inactive: 3.78%
CCC(C)(C)n1nnnc1C(c1ccc(C)cc1)N(Cc1ccco1)Cc1cccs1 (stereo not given)	inconclusive [inhibitor, partial curve, poor fit]	
Cc1ccc(C(=O)C=Cc2ccc3c(c2)OCO3)c(C)c1	inconclusive [inhibitor, single point]	
O=C(Cn1c(=O)n(-c2ccccc2Cl)c(=O)c2sc3ccccc3c21)NC1CCCCC1		inactive: 0.792%
CCOC(=O)c1ccccc1NC(=O)COC(=O)CCC(=O)c1ccc(C)cc1		inactive: 15.3%
